Reference: patent publication US11407811B2, “Fusion protein, preparation method therefor and use thereof” (JIANGSU RONGTAI BIOTECH CO., LTD., priority 2017, dated 2022)

What was measured:
[1] = tested on: iris neovascularization in rabbits; test: Iris neovascularization in rabbits; type: in vivo, rabbit; conditions: 128 μg, intravitreal injection once every 5 days for 2 weeks
Method: The argon ion laser at 577 nm was used to occlude the major branch vein of rabbit retina, and a success venous occlusion was confirmed by fundus fluorescein angiography (FFA).
9 eyes successful in modeling were randomly divided into […]. They were labeled as a negative control group, and fusion protein I, protein II, protein III, protein IV and protein V treatment groups, respectively, which were respectively given physiological saline, 128 μg of fusion protein I, 128 μg of protein II, 128 μg of protein III, 128 μg of protein IV and 128 μg of protein V via intravitreal injection once every 5 days for 2 weeks. The observation was performed with an optical and electron microscope on the third week.

[2] = tested on: peritoneal capillary permeability in mice; test: Peritoneal capillary permeability in mice (HAc, Evans blue); type: in vivo; conditions: for inhibition of the increase of peritoneal capillary permeability induced by glacial acetic acid: in words; for Exudation rate (OD590) / PI (%): mice
Method: The drug was administered once by injection (EDSM needed to be administered twice a day), and the blank model group was given an equal volume of physiological saline and fed normally. On the 5th day, a 5 g/L Evans blue physiological saline solution was injected into the tail vein at […], followed by intraperitoneal injection ([…]) of a HAc solution (6 mL/L) to induce inflammation. After 20 min, the mice were sacrificed by cervical dislocation. 5 mL of physiological saline was intraperitoneally injected, the abdomen was gently rubbed for 2 min, the abdominal cavity was cut, a peritoneal washing solution was collected and centrifuged at 4000 rpm for 10 min, 1 mL of supernatant was taken, and 3 mL of physiological saline was added to obtain 4 mL of dilution. The absorbance OD value of the dilution was measured by an ultraviolet spectrophotometer at a wavelength of 590 nm, and the amount of pigment exudation was expressed by the OD590 nm value, and the peritoneal capillary permeability in mice was examined.

[3] = tested on: xylene-induced ear swelling in mice; test: Xylene-induced ear swelling in mice; type: in vivo; conditions: for Swelling degree / PI: injection; for Swelling degree: 2 h after xylene, mice; for PI: ear swelling vs control; for inhibition of xylene-induced ear swelling: high doses
Method: 80 Kunming mice were divided into 8 groups with 10 mice for each group and numbered. A physiological saline group was used as a blank control group, an aspirin group (200 mg/kg) was used as a positive control group, and fusion protein I, protein II, protein III, protein IV and protein V at high, medium and low doses (128, 32, 8 mg/kg) were used as experimental groups. Mice were administered once by injection, while EDSM needed to be administered twice a day for 5 consecutive days. The blank control group was given an equal volume of physiological saline. After the fifth day, 0.05 mL of xylene was applied to both sides of the right ears of the mice to induce inflammation, and the left ears were not applied and were normal ears. After 2 h, the mice were sacrificed by dislocation, and the ears were cut along the auricle. Ear pieces were taken with a puncher and weighed, and the swelling degree and swelling rate were calculated. Swelling degree=right ear piece weight-left ear piece weight, swelling rate=(swelling degree/left ear piece weight)×100%.

[4] = tested on: corneal neovascularization in mice; test: Corneal neovascularization induced by alkali burn in BALB/c mice (MVD, CD31); type: in vivo; conditions: for number of CD31-positive new blood vessels: compared with the control group; for MVD: dose 64 μg, intravitreal injection, day 14 after alkali burn
From the text: 15 healthy male BALB/c mice with weight of 20-25 g were examined under a slit lamp microscope for the anterior segment of both eyes and the appendage to exclude ocular lesions. The eyes were given 0.3% loxacin eye drops 1 day before the preparation of alkali burn model, twice a day. After the mice were anesthetized by intraperitoneal injection of 1.8% Avertin, single-layer filter paper with a diameter of 2 mm was clamped with tweezers, and immersed in a 1 mol/L sodium hydroxide solution to reach a saturated state, and the excess liquid was removed. The filter paper was placed in the central corneal of BALB/c mice for 40 s and then discarded, and the burned area and conjunctival sac were immediately rinsed with 15 mL of PBS for 1 min. Excess water was wiped away with cotton swabs, and under an operating microscope, the corneal epithelium was vortically scraped off by paralleling a corneal scraping knife to the limbus corneae. The subcutaneous stromal layer and limbus corneae was carefully not to be injured, and after surgery, an erythromycin eye ointment was applied into the conjunctival sac to prevent infection.
15 mice were randomly divided into […], with 5 rats in each group. […] On day 14 after alkali burn, the neovascularization of the corneal in each group was photographed and recorded under the slit lamp microscope for photographing anterior segment of the eye. […] The blood was washed with physiological saline, and the eyeballs were fixed in 4% paraformaldehyde for 1.5 h, dehydrated in PBS containing 30% sucrose overnight, embedded in an OCT tissue freezing medium, stored in a refrigerator at −80° C., subjected to cryosection at […] and detected by immunohistochemistry for CD31 expression.
Microvessel density (MVD) is an indicator for evaluating angiogenesis. An anti-CD31 antibody immunohistochemistry was used to label vascular endothelial cells and the number of microvessels per unit area was counted to measure the extent of neovascularization. Standards for counting microvessels were that under a microscope, the endothelial cells or cell clusters which were clearly demarcated from adjacent tissues in the corneal tissue and were stained tan or brown were counted as the new blood vessels. The number of new blood vessels in the entire section was counted under a 10×20 microscope. After the corneal tissue was photographed, the area of the entire corneal tissue was calculated by image processing software Image J, and the density of new blood vessels in the entire section in this example was determined.

Molecule | effect on iris neovascularization [1] | inhibition of the increase of peritoneal capillary permeability induced by glacial acetic acid [2] | Exudation rate (OD590) ([2]; dose 8 mg/kg) | PI (%) ([2]; dose 8 mg/kg) | Exudation rate (OD590) ([2]; dose 32 mg/kg) | PI (%) ([2]; dose 32 mg/kg) | Exudation rate (OD590) ([2]; dose 128 mg/kg) | PI (%) ([2]; dose 128 mg/kg) | Swelling degree ([3]; 8 mg/kg) [mg] | PI ([3]; 8 mg/kg) [%] | Swelling degree ([3]; 32 mg/kg) [mg] | PI ([3]; 32 mg/kg) [%] | Swelling degree ([3]; 128 mg/kg) [mg] | PI ([3]; 128 mg/kg) [%] | inhibition of xylene-induced ear swelling [3] | number of CD31-positive new blood vessels [4] | MVD [4]
Protein I: IgG1-Fc linked to antiangiogenesis polypeptide EDSM-Y via a flexible linker; SEQ ID NO: 15 (protein) [sequence of human IgG1 Fc not given]GGGGSGGGGSGGGGSFQPVLHLVALNSPLSGGMRGIRGADFQCFQQARAVGLAGTFRAGGGGRGD | could inhibit neovascularization and regress the formed blood vessels | could significantly inhibit the increase of peritoneal capillary permeability | 0.51 ± 0.04 | 26.09 | 0.47 ± 0.03 | 31.88 | 0.28 ± 0.06 | 59.42 | 6.24 ± 0.26 | 6.17 | 5.08 ± 0.32 | 23.61 | 4.03 ± 0.27 | 39.40 | could significantly inhibit xylene-induced ear swelling | significantly reduced | 26.94 ± 5.91
Protein III: mIgG4-Fc linked to antiangiogenesis polypeptide EDSM-Y via a flexible linker; SEQ ID NO: 19 (protein) [sequence of human IgG4 Fc with S228P F234A L235A (EU numbers) and a few adjoining residues not given]GGGGSGGGGSGGGGSFQPVLHLVALNSPLSGGMRGIRGADFQCFQQARAVGLAGTFRAGGGGRGD | could inhibit neovascularization and regress the formed blood vessels | could significantly inhibit the increase of peritoneal capillary permeability | 0.54 ± 0.04 | 21.74 | 0.41 ± 0.07 | 40.58 | 0.31 ± 0.03 | 55.07 | 6.18 ± 0.29 | 7.07 | 5.23 ± 0.16 | 21.35 | 4.31 ± 0.22 | 35.19 | could significantly inhibit xylene-induced ear swelling | significantly reduced | 25.74 ± 5.39
